The values below come from ChEMBL document CHEMBL4888484, “Replenishing the malaria drug discovery pipeline: Screening and hit evaluation of the MMV Hit Generation Library 1 (HGL1) against asexual blood stage Plasmodium falciparum ,using a nano luciferase reporter read-out” (2022).

Among all 150,000 compounds or so, about 540 (0.36%) showed an effect of 50% or more. Some of the results follow.

The test system of the experiment is Plasmodium falciparum. Kind of experiment: Primary screen in NF54 nanoGlo assay, in single point, at 2uM, 72h; a lower Z score goes with more inhibition. In kind it is functional, Erythrocyte. The note with it: timepoint 72 hour.
On to `O=C(Cn1cncn1)N1CCC(c2nc3cc(Cl)ccc3o2)CC1`, for which the “% Inhibition” value is given as -9% and the Z score is 1.45.

For the compound `COc1cc(N)c(N)c(Br)c1`, the “% Inhibition” value was 13% and the Z score is -1.97.

On to `Cc1ccc2c(c1C)-n1cccc1C1(CCN(S(=O)(=O)c3ccc(CC(C)C)cc3)CC1)N2`, for which the “% Inhibition” value stood at 6% and the Z score is listed as -0.85.

Consider `O=C(Cn1nc(C(=O)N2CCc3ccccc32)ccc1=O)NCc1ccco1`, for which the “% Inhibition” value was -11% and the Z score amounted to 1.44.

As to `CC1(C(=O)NC(C#N)c2cccc(Cl)c2Cl)CCCO1` (stereo unspecified), the “% Inhibition” value is -8% and the Z score was found to be 1.04.

In the case of `c1ccc(Oc2ccc3oc4ccccc4c3c2)nc1`, the “% Inhibition” value was 7% and the Z score was -1.11.

For `Cc1ccc(C2(c3noc(COc4ccc(CC(N)=O)cc4)n3)CCCC2)cc1`, the “% Inhibition” value turned out to be 0% and the Z score was determined as 0.03.

Regarding `Cc1cnn(CCNCCc2cccs2)c1`, the “% Inhibition” value is -14% and the Z score worked out at 2.22.

Turning to `COc1cccc(CN2C(=O)C(=O)N(CCC3OCCCO3)C2=O)c1`, the “% Inhibition” value is reported as -3% and the Z score was found to be 0.56.

Regarding `CC(=O)c1cccc(OC(C)C(=O)N2CCC3C(CCCN3Cc3ccccc3)C2)c1` (stereo unspecified), the “% Inhibition” value is -10% and the Z score is reported as 0.93.

`Cc1ccc(CN(Cc2ccccc2)C(=O)CN(C(=O)Cc2ccc(F)cc2)C2CC2)o1`: the “% Inhibition” value is -7% and the Z score is given as 0.8.

Take `O=C(NCC1CN(C(=O)c2ccccc2)C2CCN1C2)c1ncoc1C1CCCO1` (stereo unspecified): the “% Inhibition” value is given as -18% and the Z score was 2.04.

Take `CN1CCN(c2cc(-c3ccccc3)nc3c(C(F)(F)F)cccc23)CC1`: the “% Inhibition” value was -6% and the Z score is recorded as 0.84.

`Cc1cc(NC(=O)CN2C(=O)C[C@]3(CCc4ccccc43)C2=O)no1`: the “% Inhibition” value is reported as -7% and the Z score is listed as 1.36.

In the case of `CCC[C@@H](C(=O)OCC)N1CCN(CC)CC1`, the “% Inhibition” value was -1% and the Z score worked out at 0.09.

Take `CCCCN1CCOCC1C(=O)NCC1(O)CCOC1` (stereo unspecified): the “% Inhibition” value was -2% and the Z score was found to be 0.22.

Take `CN(CCCC1CCCC1)C(=O)c1cc(O)ccc1F`: the “% Inhibition” value is listed as -5% and the Z score was 0.9.

Regarding `O=C(OC1CN(c2nc3ccccc3s2)C1)c1c(F)cccc1Cl`, the “% Inhibition” value is -5% and the Z score turned out to be 0.6.

Consider `CCCn1nc(C(=O)N(C)Cc2ccc(C)o2)ccc1=O`, for which the “% Inhibition” value amounted to 2% and the Z score is -0.35.

In the case of `Fc1cccc(F)c1OC[C@@H]1CCCN2CCCC[C@H]12`, the “% Inhibition” value was 2% and the Z score is -0.25.

`CC1CCC(NC(=O)c2nc[nH]n2)CC1` (stereo unspecified): the “% Inhibition” value is reported as 3% and the Z score is reported as -0.34.

As to `COc1cccc(C(=O)COc2ccccc2N2C(=O)C3CCCCC3C2=O)c1` (stereo unspecified), the “% Inhibition” value is on record as -10% and the Z score is recorded as 1.29.

Take `Cc1oc2ccccc2c1CNC(=O)N1CCC(C)(CO)CC1`: the “% Inhibition” value is -20% and the Z score came out at 3.05.

`CCCc1nnc(N2CCCN(CC)CC2)s1`: the “% Inhibition” value is -3% and the Z score is 0.36.

For the compound `O=C(Cn1ncccc1=O)NCCCc1cnc2ncnn2c1`, the “% Inhibition” value is -3% and the Z score turned out to be 0.63.

In the case of `COc1ccccc1OCCN1CC[C@@]2(CCCOC2)C1`, the “% Inhibition” value is -13% and the Z score is listed as 1.27.

With `Cc1cc(CN(CCCn2ccnc2)Cc2cccnc2)[nH]n1`, the “% Inhibition” value was -9% and the Z score is 1.31.

Take `O=C1C[C@H](N2CCN(Cc3ccccc3)CC2)C(=O)N1c1ccc2c(c1)OCO2`: the “% Inhibition” value is -4% and the Z score is 0.81.

Take `C/C=C(\C)C(=O)N1CC[C@@]2(CCCN(CCCc3ccccc3)C2)C1`: the “% Inhibition” value was 8% and the Z score is listed as -1.

With `Cc1nc(-c2cccc(C(=O)Nc3ccc(F)cc3Cl)c2)cs1`, the “% Inhibition” value is given as -7% and the Z score is 0.88.

In the case of `CC(C)Cc1noc(Cn2ncccc2=O)n1`, the “% Inhibition” value is -20% and the Z score was found to be 2.72.

As for `Cc1cnc(CC[C@H]2CCCN2C(=O)C(C)(C)C)n1C`, the “% Inhibition” value was 28% and the Z score was -3.71.

Regarding `O=C(NCCc1cccc(Cl)c1Cl)[C@H]1CC12CCNCC2`, the “% Inhibition” value is -19% and the Z score was determined as 1.73.

For the compound `CC(C)[C@@H]1NC(=O)N(Cc2noc3c2CCCC3)C1=O`, the “% Inhibition” value is recorded as -4% and the Z score is listed as 0.72.

On to `C=CCc1cc(CNc2n[nH]c(OC)n2)cc(OC)c1O`, for which the “% Inhibition” value is reported as -7% and the Z score stood at 1.35.

Take `O=C(c1ccc2c(c1)OCO2)N1CCc2ncncc2C1`: the “% Inhibition” value is given as -4% and the Z score was 0.7.

With `C[C@]1(O)CCN(C(=O)Cc2ccccn2)C[C@H]1Cc1ccccc1`, the “% Inhibition” value is given as -3% and the Z score worked out at 0.5.

In the case of `CC[C@H](C)Cc1nc(-c2n[nH]nc2C)n(CC(C)(C)O)n1`, the “% Inhibition” value was -26% and the Z score is 2.27.

Regarding `CCCCOc1ccc(-c2nc(=O)c(CCC(=O)N(C)CC)n[nH]2)cc1`, the “% Inhibition” value is listed as -7% and the Z score worked out at 1.16.

Regarding `CC(O)CN1CCN(C(=O)Nc2ccc3c(c2)OCO3)C(C)C1` (stereo unspecified), the “% Inhibition” value worked out at 3% and the Z score is reported as -0.33.

`Cc1cccc([C@H](CNC(=O)c2cnc(N(C)C)nc2C)N(C)C)c1`: the “% Inhibition” value was 7% and the Z score is -1.04.

Consider `COc1ccc(C(=O)Nc2nonc2NC(=O)c2ccc(OC)c(Br)c2)cc1Br`, for which the “% Inhibition” value is -20% and the Z score is 2.67.

As to `O=C(NCc1cccnc1)c1nn(-c2ccc(Cl)cc2)c(=O)n(Cc2ccccc2)c1=O`, the “% Inhibition” value was -11% and the Z score is reported as 1.52.

What is called % Inhibition is the drop in the measured response relative to a control, in per cent.
